Experimental data: US20230002488A1 (SYSTIMMUNE, published 2023)
Values belong to the binder of their own block, whether it stands above or below them.

Tests used:
biotinylated human MICA = target: T1, biotinylated human MICA (human, UniProt Q29983 24-308, limits assumed, biotinylated (site not stated)); assay: BLI (Octet), biotinylated MICA on SA tips, GNC protein 0-100 nM as analyte
T1 construct: Loaded on SA tips as ligand for SI-49P6 and SI-49P7

MICA on MDA-MB-231 cells = MICA on MDA-MB-231 cells (human, UniProt Q29983 24-383); assay: cell-based or functional assay
human EGFR = target: T2, human EGFR (human, UniProt P00533 in part); assay: BLI (Octet), GNC on AHC sensor; strong binding, dissociation too slow to quantify KD
T2 construct: also called huEGFR; His-tagged human EGFR

human PD-L1 = target: T3, human PD-L1 (human, UniProt Q9NZQ7 in part); assay: as above
T3 construct: Bought antigen; construct not described

human 4-1BB = target: T4, human 4-1BB (human, UniProt Q07011 24-186); assay: BLI (Octet), GNC on AHC sensor, 100 nM antigen as analyte, 1:1 fit
T4 construct: Bought antigen; construct not described

His-tagged human MICA = target: T5, His-tagged human MICA (human, UniProt Q29983 24-308, limits assumed); assay: BLI (Octet), GNC on AHC tips, His-tagged MICA as analyte
T5 construct: Analyte in the Octet runs with the GNC protein loaded on AHC tips; also called His-tagged MICA

MICA on MDA-MB-231 cells, sequence (Q29983 24-383): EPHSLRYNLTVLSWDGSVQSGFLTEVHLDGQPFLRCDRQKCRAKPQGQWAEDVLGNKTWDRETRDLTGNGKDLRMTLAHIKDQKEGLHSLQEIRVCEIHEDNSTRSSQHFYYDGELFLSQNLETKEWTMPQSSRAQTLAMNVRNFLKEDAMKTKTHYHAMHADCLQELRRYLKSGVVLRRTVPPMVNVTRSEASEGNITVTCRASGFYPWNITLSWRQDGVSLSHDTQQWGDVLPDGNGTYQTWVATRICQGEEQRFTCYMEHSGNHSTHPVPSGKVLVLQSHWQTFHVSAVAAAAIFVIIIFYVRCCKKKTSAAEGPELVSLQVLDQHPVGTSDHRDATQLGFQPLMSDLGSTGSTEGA
biotinylated human MICA, sequence (Q29983 24-308 limits assumed): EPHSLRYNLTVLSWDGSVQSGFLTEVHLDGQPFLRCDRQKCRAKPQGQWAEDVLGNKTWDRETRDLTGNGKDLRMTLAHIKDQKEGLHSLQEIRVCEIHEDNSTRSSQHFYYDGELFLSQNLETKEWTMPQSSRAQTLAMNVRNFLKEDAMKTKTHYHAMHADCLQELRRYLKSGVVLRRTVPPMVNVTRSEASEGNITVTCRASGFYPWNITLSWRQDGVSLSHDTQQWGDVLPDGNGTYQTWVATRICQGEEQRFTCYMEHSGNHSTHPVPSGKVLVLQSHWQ
His-tagged human MICA, sequence (Q29983 24-308 limits assumed): as above

Kd (biotinylated human MICA): 7.76 nM
TDCC EC50, MDA-MB-231 target cells (MICA on MDA-MB-231 cells): 0.737 pM
B1: SI-49P6 (other)
heavy: EIVMTQSPSTLSASVGDRVIITCQASESISSWLAWYQQKPGKAPKLLIYEASKLASGVPSRFSGSGSGAEFTLTISSLQPDDFATYYCQGYFYFISRTYVNSFGCGTKLTVLGSTGSGSKPGSGEGSTKGEVQLVESGGGLVQPGGSLRLSCTASGFTISTNAMSWVRQAPGKCLEWVGVITGRDITYYASWAKGRFTISRDTSKNTVYLQMNSLRAEDTAVYYCARDGGSSAITSNNIWGQGTLVTVSTGGGGSGGGGSFLNSLFNQEVQIPLTESYCGPCPKNWICYKNNCYQFFDESKNWYESQASCMSQNASLLKVYSKEDQDLLKLVKSYHWMGLVHIPTNGSWQWEDGSILSPNLLTIIEMQKGDCALYASSFKGYIENCSTPNTYICMQRTVASTKGPSVFPLAPSSKSTSGGTAALGCLVKDYFPEPVTVSWNSGALTSGVHTFPAVLQSSGLYSLSSVVTVPSSSLGTQTYICNVNHKPSNTKVDKRV[sequence of human IgG1 Fc with L234A L235A N297A K322A (EU numbers) not given]GGGGSGGGGSEVQLLESGGGLVQPGGSLRLSCAASGFSFSSGYDMCWVRQAPGKCLEWIACIAAGSAGITYDANWAKGRFTISRDNSKNTLYLQMNSLRAEDTAVYYCARSAFSFDYAMDLWGQGTLVTVSSGGGGSGGGGSGGGGSGGGGSDIQMTQSPSTLSASVGDRVTITCQASQSISSHLNWYQQKPGKAPKLLIYKASTLASGVPSRFSGSGSGTEFTLTISSLQPDDFATYYCQQGYSWGNVDNVFGCGTKVEIKGGGGSGGGGSGRSLVESGGGLVQPGGSLRLSCTASGFTISSYHMQWVRQAPGKCLEYIGTISSGGNVYYASSARGRFTISRPSSKNTVDLQMNSLRAEDTAVYYCARDSGYSDPMWGQGTLVTVSSGGGGSGGGGSGGGGSGGGGSDVVMTQSPSSVSASVGDRVTITCQASQNIRTYLSWYQQKPGKAPKLLIYAAANLASGVPSRFSGSGSGTDFTLTISDLEPGDAATYYCQSTYLGTDYVGGAFGCGTKVEIK
light: ENVLTQSPASLSASPGERVTITCSASSSVSYMHWYQQKPGQAPKLWIYDTSKLASGVPSRFSGSGSGNDHTLTISSMEPEDFATYYCFQGSVYPFTFGQGTKLEIKGSTGSGSKPGSGEGSTKGQVTLKESGPGLVQPGQTLRLTCAFSGFSLSTSGMGVGWIRQPPGKGLEWLAHIWWDDDKRYNPALKSRLTISKDTSKNQVYLQMNSLDAEDTAVYYCARMELWSYYFDYWGQGTLVTVSSGGGGSGGGGSGGGGSFLNSLFNQEVQIPLTESYCGPCPKNWICYKNNCYQFFDESKNWYESQASCMSQNASLLKVYSKEDQDLLKLVKSYHWMGLVHIPTNGSWQWEDGSILSPNLLTIIEMQKGDCALYASSFKGYIENCSTPNTYICMQRTVRTVAAPSVFIFPPSDEQLKSGTASVVCLLNNFYPREAKVQWKVDNALQSGNSQESVTEQDSKDSTYSLSSTLTLSKADYEKHKVYACEVTHQGLSSPVTKSFNRGEC
notes: Antibody-like penta-GNC protein; human NKG2D (F78-V216) in place of VH and VL at D2; D1 CD3, D3 PD-L1, D4 4-1BB, D6 CD19; also called αCD3×NKG2D×αPD-L1×α4-1BB×αCD19

binding result (human EGFR): binds
binding result (human PD-L1): binds
Kd (human 4-1BB): 2.79 nM
Kd (His-tagged human MICA): 1.84 nM
B2: SI-49P10 (other)
heavy: B1 heavy
light: DIQMTQSPSSLSASVGDRVTITCQASQDISNYLNWYQQKPGKAPKLLIYDASNLETGVPSRFSGSGSGTDFTFTISSLQPEDIATYFCQHFDHLPLAFGGGTKVEIKGSTGSGSKPGSGEGSTKGQVQLQESGPGLVKPSETLSLTCTVSGGSVSSGDYYWTWIRQSPGKGLEWIGHIYYSGNTNYNPSLKSRLTISIDTSKTQFSLKLSSVTAADTAIYYCVRDRVTGAFDIWGQGTMVTVSSGGGGSGGGGSGGGGSFLNSLFNQEVQIPLTESYCGPCPKNWICYKNNCYQFFDESKNWYESQASCMSQNASLLKVYSKEDQDLLKLVKSYHWMGLVHIPTNGSWQWEDGSILSPNLLTIIEMQKGDCALYASSFKGYIENCSTPNTYICMQRTVRTVAAPSVFIFPPSDEQLKSGTASVVCLLNNFYPREAKVQWKVDNALQSGNSQESVTEQDSKDSTYSLSSTLTLSKADYEKHKVYACEVTHQGLSSPVTKSFNRGEC
notes: Antibody-like penta-GNC protein; human NKG2D (F78-V216) in place of VH and VL at D2; D1 CD3, D3 PD-L1, D4 4-1BB, D6 EGFR; also called αCD3×NKG2D×αPD-L1×α4-1BB×αEGFR
